Experimental data from PubChem BioAssay AID493208 (National Center for Advancing Translational Sciences (NCATS), 2011).
The campaign covered roughly 44,000 compounds. About 340 (0.77%) were called active. Another 5% or so got no clear call; they are omitted. Calls follow the shape of the dose curve; as a rule, active = well fitted inhibition curve with a large enough effect; inconclusive = small, poorly fitted or top-dose-only effect; inactive = flat fitted curve, though single readings scatter. The list shows a part of the results.

test: Acumen qHTS Assay for Inhibitors of the mTORC1 Signaling Pathway in MEF (Tsc2-/-, p53-/-) Cells: Sytravon; conditions: phospho-rpS6 immunofluorescence/PI, 24 h; series mostly up to 38.3 µM; activity change, negative = inhibition: at the top concentration;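 also: plate controls were DMSO for no effect and rapamycin for full effect; nearly all actives have a fitted effect of over 50% in size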
Procedure, shortened: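 Read-out: phospho-S6 Alexa-488 intensity over PI intensity per well, scored as % active cells using thresholds from rapamycin (7.5 nM) and DMSO controls. Tsc2-/-, p53-/- MEFs exposed to compound for 24 h; PI cell count recorded as viability.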

Activity change, negative = inhibition, inactive:
COc1ccc(NC(=O)Cn2c(=O)c3cc(Cl)ccc3n3nncc23)cc1 -9.14%
CCOc1ccc(C(=O)c2cn(CC(=O)Nc3ccc4c(c3)OCCO4)c3ccc(F)cc3c2=O)cc1 0.573%
CC(C)CCNS(=O)(=O)c1ccc(N2CCCCS2(=O)=O)cc1 0%
COC(=O)CN1C(=O)CSc2ccc(S(=O)(=O)Nc3ccc(C(C)=O)cc3)cc21 2.25%
CN(C(=O)CSc1nc(C2CCCC2)nc2c1c(=O)n(C)c(=O)n2C)c1ccccc1 0%
Cc1cccc(C)c1OC(=O)CSc1nnc(CNC(=O)c2ccccc2)o1 -7.13%
CC1CCN(C(=O)CSc2nnc(-c3ccccc3)o2)CC1 2.24%
O=C(CSc1oc(-c2ccccc2)nc1S(=O)(=O)c1ccc(Cl)cc1)NC1CCCCC1 3.75%
COCCCNC(=O)CSc1nc2cc3c(cc2c(=O)n1CCCCCC(=O)NCc1ccc(OC)cc1)OCO3 -2.23%
CC(C)COC(=O)Cn1nnc2sc(-c3ccccc3)cc2c1=O 0.362%
Cc1cc(C)c(NS(=O)(=O)c2cc(-c3onc(C)c3C)ccc2C)c(C)c1 9.52%
O=C(CN1CCCN(S(=O)(=O)c2ccc(Br)cc2)CC1)Nc1cccc(C(F)(F)F)c1 -1.24%
CC1CCN(C(=O)c2ccc3c(c2)N(Cc2ccccc2)C(=O)c2ccccc2S3(=O)=O)CC1 -14.4%
Cc1ccc(NC(=O)c2cnc(SCC(=O)N3CCOCC3)n(C)c2=O)cc1C 3.84%
COc1ccccc1-c1noc(-c2ccc(NCc3ccco3)c([N+](=O)[O-])c2)n1 -7.41%
O=C(Nc1cccc(C(F)(F)F)c1)c1cc(S(=O)(=O)N2CCCC2)c[nH]1 -9.2%
COc1ccc(NC(=O)Cn2nnc(C(=O)NCc3ccc4c(c3)OCO4)c2N)cc1 -2.15%
Cc1cccc(N2CCN(C(=O)c3ccc4c(Cl)c5c(nc4c3)CCCC5)CC2C)c1 (centres undefined) -3.63%
CCN(Cc1ccccc1)Cc1c(O)ccc2c(=O)c(-c3ccc(Cl)cc3)coc12 2.75%
O=C(NCc1ccccc1Cl)c1cnc(N2CCOCC2)c2ccccc12 1.98%
Cc1ccc(-c2cc(-c3coc4ccc(Cl)cc4c3=O)c3c(n2)-c2ccccc2OC3)cc1 3.23%
Cc1ccc2cccc(NC(=O)c3cccc4c(Cl)cccc34)c2n1 6%
Cc1ccc(C)c(N2CCN(C(=O)CCNS(=O)(=O)c3ccc4c(c3)CCN4C(=O)C3CC3)CC2)c1 -1.21%
O=C(C1CCC(Cn2c(=O)c3sccc3n(Cc3ccccc3)c2=O)CC1)N1CCCCC1 (centres undefined) -1.91%
COc1ccc(OC)c(NC(=O)CC2C(=O)NCCN2C(=O)C(F)(F)F)c1 (centres undefined) -9.31%
CCOc1ccc(NC(=O)CCc2nc3cccnc3n2-c2ccccc2)cc1 -15%
COc1ccc2c(c1)c(CC(=O)Nc1ccc(C(C)=O)cc1)c(C)n2C(=O)c1ccc(Cl)cc1 -8.91%
COc1ccc(NC(=O)c2oc3ccccc3c2NC(=O)C23CC4CC(CC(C4)C2)C3)c(OC)c1 -5%
Cc1ccc(NC(=O)c2oc3ccccc3c2NC(=O)c2ccc(F)c(F)c2)cc1 8.65%
COc1ccc(S(=O)(=O)NCCS(=O)(=O)N2CCN(c3ccccc3)CC2)cc1OC -17%
CCc1ccc(NC(=O)CSc2nc3c(oc4ccccc43)c(=O)n2-c2cccc(C)c2)cc1 10.8%
O=C(Nc1nc2ccc(Cl)cc2s1)c1cc(=O)c2ccccc2o1 -4.58%
CCc1cccc(CC)c1NC(=O)C(Cc1ccccc1)NS(=O)(=O)c1cccc2nsnc12 (centres undefined) -12.3%
CC(C)CN(CCCNC(=O)c1cc(=O)[nH]c2ccc(S(=O)(=O)N3CCCC3)cc12)CC(C)C -11.6%
CCc1cnc2c(c1SCc1ccccc1C)c(=O)n(C)c(=O)n2C -0.115%
COc1cccc(C(=O)NC(=NCCc2c[nH]c3ccc(OC)cc23)Nc2nc(C)cc(C)n2)c1 -3.77%
COc1cc2c(cc1OC)n(CC(=O)c1cccc(Cl)c1)c(=O)n1nc(CCn3nc(C)cc3C)nc21 -2.7%
Cc1ccc(Nc2sc(C(=O)c3ccccc3)c(N)c2C(=O)Nc2ccc(Cl)cc2)cc1 -7.55%
CCOCCCNC(=O)c1cc(Sc2cccc(Cl)c2)nc2ccccc12 9.98%
COc1ccc(-c2cn3nc(N4CCCC(C(=O)Nc5cccc(OC)c5)C4)sc3n2)cc1 (centres undefined) 3.84%
O=C(CCN1C(=O)c2ccccc2Sc2ncccc21)Nc1ccc(F)cc1F 0.371%
COc1cccc(C(=O)N2c3ccc(C)cc3C(C)(c3ccccc3)CC2(C)C)c1 (centres undefined) -11%
COc1ccc(C2NC(=O)NC(C)=C2C(=O)Nc2ccccc2)cc1OC (centres undefined) 8.08%
Cc1ccccc1C(=O)Nc1sc2c(c1C(=O)N1CCCCC1)CCC(C)C2 (centres undefined) -2.47%
Cc1ccc(CC(=O)Nc2ccc3c(c2)N(C)C(=O)c2ccccc2S3)cc1 -8.46%
O=C(NCc1cccnc1)C(=O)NCC(c1cccnc1)N1CCN(c2ccc(F)cc2)CC1 (centres undefined) 0.984%
CCOC(=O)c1ccc(NC(=O)C(Cc2ccccc2)N2Cc3ccccc3C2=O)cc1 (centres undefined) -1.8%
Cc1ccc(-c2nn3c(=O)cc(CN4CCN(C(=O)/C=C/c5ccccc5)CC4)nc3s2)cc1 1.31%
CCn1c(=O)c2sccc2n2c(CCCC(=O)N3CCN(c4cccc(Cl)c4)CC3)nnc12 0.154%
CCCOc1ccc(C(=O)Nc2ccc3oc(-c4cccc(Cl)c4Cl)nc3c2)cc1 12.2%
CCc1ccc(-c2cn3c(n2)sc2cc(C(=O)NCCC4=CCCCC4)ccc23)cc1 6.05%
CCOC(=O)c1ccc(NC(=O)CSc2cn(CC(=O)N3CCCC3)c3ccccc23)cc1 -14.4%
Cc1ccc(-n2nc3c(N4CCCC(C(=O)NCc5ccc(Cl)cc5)C4)nnc(C)c3c2C)cc1 (centres undefined) -8%
COC(=O)c1ccc2c(c1)N(CC(=O)Nc1ccc(OC)c(Cl)c1)C(=O)c1ccccc1S2 4.63%
CC(C)c1ccc(NC(=O)Cn2cc(S(=O)(=O)Cc3cccc(Cl)c3)c3ccccc32)cc1 -12.3%
COc1ccc(C(=O)Nc2nc3n(n2)C(c2ccccc2)C=C(c2ccccc2)N3)cc1 (centres undefined) -3.94%
N#Cc1nc(COc2cccc(Cl)c2)oc1NCCc1ccccc1 2.79%
CC(C)c1ccc(NC(=O)CSc2nc(=O)n(Cc3ccccn3)c3c2CCC3)cc1 0.0426%
CCCn1c(SCc2nc(-c3ccccc3OCC)no2)nnc1-c1ccc(Cl)cc1 0.856%
